Data published in the supplement of paper PMC11417369.
This is one part of the list.

test system: PfSIP2 AP2 domain 1 (GST-tagged); test: gcPBM binding intensity (ln(normalized median fluorescence intensity)); higher = stronger DNA binding
Outline: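 Alexa488 anti-GST antibody, scanned at 488 nm, detected GST-tagged P. falciparum DNA-binding domains that had been expressed in E. coli and incubated for 1 h on an Agilent 4 × 180k array. The array carried primer-extended double-stranded 36-bp intergenic genomic probes and negative controls. Binding intensity is the highest Masliner-normalised natural-log median intensity across replicate spots of either orientation of each probe.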

| Sequence | gcPBM binding intensity (ln) |
| --- | --- |
| CTATATATTTAAAAAAGTACAAATATAAAAATATAT [XGTACX_site676] | 7.09 |
| ATTTTTTTTAAACGAAGTACAATTTGTGCATTGGAA [XGTACX_site8109] | 7.39 |
| TTTTTTTTTTTTGTAGTGCAAATTAAAAATATATGT | 8.09 |
| TATATATATATATATGTATGCATGTCCTTTTTTATT [TGCATGCA_site344] | 9.1 |
| TGTTTATCATATTTGTGTCCTCATTTTTTAGTATCA [XGTACX_site947] | 6.98 |
| ATTTTTTTTTTTTTTTTTTTTTTTTTTTTTTTATGC [CACACA_negctrl_site1018] | 6.98 |
| TTATTTCTTCAGAAAAAATTAAAAAATTAAACAATA [CACACA_negctrl_site169] | 6.76 |
| TATGTTCCGAAGGTTGTACACACATAGAAATATACA [CACACA_site9285] | 7.08 |
| GGGAGGATATTACACAGTACCCAGGAAATCTACGGA [XGTACX_site4874] | 6.99 |
| TTTTTTTTTTTTGTAACATGCAAACAACAATATGGG [TGCATGCA_site695] | 7.33 |
| ATGTAATTGTATACATGTACGCAAACACAAAAGCAT [XGTACX_site6771] | 7.24 |
| AAGGAAAAAACAAATACACACAAAAACGCATTATAA [CACACA_site3466] | 6.82 |
| ATGAACTTATTTTAGTGTACTAAAAAATATGACTTC [XGTACX_site470] | 6.99 |
| TACATAATTTTAATCACACACAAACAAACACATACA [CACACA_site194] | 7.38 |
| GTAAGTATATATAATAGTACATATATATTAATATAT [XGTACX_site4314] | 7.18 |
| TTTTGTTCATACAAATTGGAACAAGACAAAAATATA [XGTACX_negctrl_site327] | 7.16 |
| TATCATTTTGAAGTATGTACTTATTTTATTAAAATA [XGTACX_site7784] | 6.97 |
| ATTATATTAAAATATTCACACACTAACGTAAATCAT [CACACA_site8887] | 6.78 |
| TAAATACATAAATACACACACATATATATATATATA [CACACA_site5549] | 9.79 |
| TAGGTCATATTTTTTGCACACAAAAAAAAATATAAA [CACACA_site3380] | 7.29 |
| TTTTTCCAATCAGATGCATGTTACTATATTTGGTTC [TGCATGCA_site52] | 6.9 |
| CACCTCAATATTCACATACACACAATATCATCGAAG [CACACA_site1675] | 7.33 |

| Sequence | gcPBM binding intensity (ln) |
| --- | --- |
| TGTATAAGGTTTTTACGTTTTGAAGGATGTATTGTT [CACACA_negctrl_site1245] | 7 |
| CGTAGCCGCACTAACACACACAAATATACGCAATCA [CACACA_site2898] | 7.64 |
| AAAAAAAAAAAAAATAATAAATAAATAAATAAATAA [GTGCAC_negctrl_site505] | 7.38 |
| AAAAATAAAAAAAAATTAAAATATATATATTTTGTT [TGCATGCA_negctrl_site102] | 6.79 |
| AACATATTTATATACACACACATATTTATATGAAAT [CACACA_site6268] | 7.2 |
| GAGAGGATACATACATGTACATAAATATTTTATTTT [XGTACX_site5129] | 7.06 |
| AGGAAAAAAAGTAGCACACAAATATTTATAATATAT [CACACA_site2437] | 7 |
| ATATTTTGGGTGTTGTTTTTTTTTAAAACTCTTTAA [CACACA_negctrl_site1255] | 7.14 |
| ATTAGTTTATATGAATGATTTTTCTTTTTTTTTTTT [CACACA_negctrl_site88] | 6.75 |
| TTACTATTTCACTGTGCATGCAACAAAAATCTATCT [TGCATGCA_site808] | 8.34 |
| TTTGATTTTAATGTGTGTACACATTTATTTATATAA [XGTACX_site4806] | 7.74 |
| GATTTATATTTTAAAAGTACAAGTTAAAATAAAAGT [XGTACX_site7059] | 7.7 |
| AATATAAGATTATTATGTACATAATAAATATGTATT [XGTACX_site4773] | 6.84 |
| ATATAAGTATAATTATGTACTTATACTTATATAAAT [XGTACX_site5585] | 7.02 |
| ATATAATATCTGTATACACACATATTATATAATATT [CACACA_site5940] | 6.93 |
| TTTTTTTTTTTGGTTACACACATTTGTATATTCTCA [CACACA_site134] | 7.05 |
| CATATTAATACAGAATGTACGGATAACAAACTGTTT [XGTACX_site7935] | 6.8 |
| ATAATTATATGATGAGTGCACAATAAAAATATCGTT [GTGCAC_site9920] | 10.7 |
| GGTCATCATCGGTATTGTACAAAAATGTGAAAATTA [XGTACX_site639] | 7.59 |
| TTTTATTTAGGAGGTGCATGTAATACGGAACATAAT [TGCATGCA_site827] | 11.2 |
| CCATAACTCCTATGCACACATAAATATTACAGAGAT [CACACA_site5984] | 7.54 |
